From paper PMC4336329 (PLoS ONE, 2015)
The whole screen tested about 310,000 compounds, of which about 2,200 (0.71%) showed an effect of 50% or more. The effect is printed as a negative number. The list shows a part of the results.

Biological target: human ether-à-go-go-related gene (hERG) potassium channel (human, UniProt Q12809)
Experiment: primary screen, population patch clamp on CHO cells stably expressing hERG

human ether-à-go-go-related gene (hERG) potassium channel, sequence (Q12809 whole entry, looked up): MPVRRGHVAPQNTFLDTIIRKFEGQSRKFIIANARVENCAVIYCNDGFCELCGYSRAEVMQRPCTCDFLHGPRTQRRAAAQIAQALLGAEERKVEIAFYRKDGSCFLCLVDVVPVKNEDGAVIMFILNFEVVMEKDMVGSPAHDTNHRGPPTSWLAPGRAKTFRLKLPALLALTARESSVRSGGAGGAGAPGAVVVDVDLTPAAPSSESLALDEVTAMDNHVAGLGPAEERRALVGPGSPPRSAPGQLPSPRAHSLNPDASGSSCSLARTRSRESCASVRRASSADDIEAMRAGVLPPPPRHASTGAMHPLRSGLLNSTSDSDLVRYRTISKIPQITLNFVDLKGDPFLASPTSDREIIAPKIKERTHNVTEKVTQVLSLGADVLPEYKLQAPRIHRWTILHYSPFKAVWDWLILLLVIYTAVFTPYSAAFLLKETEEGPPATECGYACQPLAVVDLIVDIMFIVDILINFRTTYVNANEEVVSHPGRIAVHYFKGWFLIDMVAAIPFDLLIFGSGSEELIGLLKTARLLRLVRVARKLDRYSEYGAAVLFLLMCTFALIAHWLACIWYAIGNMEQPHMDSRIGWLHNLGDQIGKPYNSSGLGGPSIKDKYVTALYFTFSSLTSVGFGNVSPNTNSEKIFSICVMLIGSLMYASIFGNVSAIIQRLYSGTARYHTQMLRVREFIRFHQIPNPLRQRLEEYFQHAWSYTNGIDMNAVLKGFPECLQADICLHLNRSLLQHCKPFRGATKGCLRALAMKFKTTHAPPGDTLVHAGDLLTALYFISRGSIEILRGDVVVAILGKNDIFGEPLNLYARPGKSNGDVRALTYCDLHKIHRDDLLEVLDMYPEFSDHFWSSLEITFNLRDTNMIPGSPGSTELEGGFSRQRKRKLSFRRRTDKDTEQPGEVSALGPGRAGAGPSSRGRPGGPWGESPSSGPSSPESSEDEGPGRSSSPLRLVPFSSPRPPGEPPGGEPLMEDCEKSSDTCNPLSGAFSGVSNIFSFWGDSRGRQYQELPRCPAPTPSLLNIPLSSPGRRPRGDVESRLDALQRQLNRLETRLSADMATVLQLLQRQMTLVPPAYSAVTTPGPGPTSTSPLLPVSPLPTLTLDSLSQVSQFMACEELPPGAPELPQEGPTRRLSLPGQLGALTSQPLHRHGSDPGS

Compound	hERG current change (%, negative = inhibition) at 1uM [%]
CC(C)=CC(=O)O[C@H]1[C@@H]2[C@H](C)C(=O)O[C@@H]2C[C@@H](C)[C@@H]2[C@@H](O)CC(=O)[C@]21C	11.3
COC(=O)c1cc(C(=O)c2ccc(Cl)cc2)n2c(=O)/c(=C\N(C)C)sc12	9.95
CCN1CCN(Cc2ccc(NC(=O)c3ccc(C)c(NC(=O)c4c[nH]c5cc(C(F)(F)F)ccc5c4=O)c3)cc2C(F)(F)F)CC1	11.9
CC(C)CC(=O)/C(=C/c1ccc(N(C)C)cc1)n1cncn1	16.5
O=C(NCc1cccnc1)c1ccc(Cn2c(=S)[nH]c3ccc(Br)cc3c2=O)cc1	12.9
Cc1cccc(C(=O)Nc2ccc(C(=O)/C=C/c3cccnc3)cc2)c1	9.38
Cc1ccc(C(=O)N/C(=C\c2ccc(-c3ccc(Br)cc3)o2)C(=O)NC2CCS(=O)(=O)C2)cc1 (stereo not shown)	7.85
O=C(NC1CCS(=O)(=O)C1)c1cccc(S(=O)(=O)N2CCCC2)c1 (stereo not shown)	15.3
O=C(CSc1n[nH]c(-c2cccnc2)n1)OC1CCCCC1	14.2
Cc1ccc(-n2cccc2C(=O)NS(=O)(=O)c2ccc(C)cc2)cc1	1.73
COc1ccccc1CN(Cc1nc2ccccc2c(=O)[nH]1)C(=O)Nc1ccccc1C	10.1
COc1ccc(-c2c(C(F)(F)F)oc3c(CN4CCN(C)CC4)c(O)ccc3c2=O)cc1	18.4
O=c1oc2cc(O)ccc2cc1-c1ccccc1	25.2
CN(Cc1cccc2cnccc12)C(=O)c1cc(COc2ccc(F)cc2Cl)on1	19.5
O=C(O)c1ccc(CNC(=O)c2ccc(C(F)(F)F)cc2)cc1	10.3
CCOC(=O)N1CCN(CC(=O)N2c3ccccc3CCc3ccccc32)CC1.O=C(O)C(=O)O	3.83
Cc1ccc(O)c(C2=Nc3ccccc3N=C(c3cccs3)C2)c1	12.4
Cc1ccccc1NC(=O)c1ccc2c(O)c(S(=O)(=O)c3ccccc3)c(=O)[nH]c2c1	6.14
CCC(=O)Nc1ccc(C(=O)CN2C(=O)NC3(CCOc4ccccc43)C2=O)cc1 (stereo not shown)	2.73
COc1ccc(Cl)cc1S(=O)(=O)N1CCCC1=O	13.6
CCOC(=O)c1[nH]cnc1C(=O)Nc1cccc(OC)c1	8.6
O=C(NC12CC3CC(CC(C3)C1)C2)c1ccccc1	15.6
